In all, about 310,000 compounds went through this assay and about 2,200 (0.71%) showed an effect of 50% or more. Effects have a minus sign here. The list shows a part of the results.
target: human ether-à-go-go-related gene (hERG) potassium channel (human, UniProt Q12809); assay: primary screen, population patch clamp on CHO cells stably expressing hERG
Sequence (Q12809 whole entry, looked up): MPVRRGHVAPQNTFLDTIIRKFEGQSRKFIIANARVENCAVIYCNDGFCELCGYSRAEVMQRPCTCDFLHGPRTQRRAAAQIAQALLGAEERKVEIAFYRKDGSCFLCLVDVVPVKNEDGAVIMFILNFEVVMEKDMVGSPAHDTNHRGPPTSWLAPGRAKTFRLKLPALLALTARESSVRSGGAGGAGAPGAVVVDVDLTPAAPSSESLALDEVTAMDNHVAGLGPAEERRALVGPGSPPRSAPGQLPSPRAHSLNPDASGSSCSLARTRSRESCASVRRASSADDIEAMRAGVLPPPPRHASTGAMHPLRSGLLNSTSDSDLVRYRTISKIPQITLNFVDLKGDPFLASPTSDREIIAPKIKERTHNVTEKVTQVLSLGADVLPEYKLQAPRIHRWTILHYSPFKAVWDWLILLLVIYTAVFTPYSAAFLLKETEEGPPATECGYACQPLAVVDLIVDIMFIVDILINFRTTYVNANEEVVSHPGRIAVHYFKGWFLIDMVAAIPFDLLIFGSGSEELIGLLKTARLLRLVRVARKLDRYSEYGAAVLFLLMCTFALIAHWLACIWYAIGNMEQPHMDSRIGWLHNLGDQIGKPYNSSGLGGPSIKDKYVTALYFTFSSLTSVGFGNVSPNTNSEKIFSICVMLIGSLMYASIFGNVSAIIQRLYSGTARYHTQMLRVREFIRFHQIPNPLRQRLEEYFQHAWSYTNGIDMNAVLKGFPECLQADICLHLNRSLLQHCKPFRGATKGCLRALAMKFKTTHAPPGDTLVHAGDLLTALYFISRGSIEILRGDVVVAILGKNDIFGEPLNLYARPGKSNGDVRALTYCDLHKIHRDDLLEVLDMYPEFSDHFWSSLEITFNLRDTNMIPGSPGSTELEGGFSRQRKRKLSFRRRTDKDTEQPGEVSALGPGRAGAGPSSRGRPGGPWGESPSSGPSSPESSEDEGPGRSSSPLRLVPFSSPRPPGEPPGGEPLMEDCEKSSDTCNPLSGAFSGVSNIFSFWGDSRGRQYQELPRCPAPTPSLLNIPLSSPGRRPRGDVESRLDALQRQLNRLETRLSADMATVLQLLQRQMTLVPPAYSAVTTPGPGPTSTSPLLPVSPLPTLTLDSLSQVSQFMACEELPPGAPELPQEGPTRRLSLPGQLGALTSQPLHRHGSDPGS

Row | SMILES | hERG current change (%, negative = inhibition) at 1uM [%]
1 | COc1ccc(OC)c(NC(=O)CSc2nnc3ccc(-c4ccncc4)nn23)c1 | -11.2
2 | CCc1noc(C)c1C(=O)Nc1ccc(S(=O)(=O)N2CCCCC2)cc1 | 2.88
3 | Cc1ccc(Cl)c(OCCCCN(C)Cc2ccccc2)c1.O=C(O)C(=O)O | 1.14
4 | Cc1c(C(=O)NNS(=O)(=O)c2ccccc2Cl)sc(=S)n1C | 11.8
5 | CC/C=C/C(=O)N1CC2(CC(c3cccc(NC(=O)CCCCC)c3)=NO2)C[C@H]1C(N)=O (some centres unmarked) | 11.1
6 | COc1ccc(/C=C/C(=O)c2c(O)ccc3c(C)cc(=O)oc23)cc1 | 0.0569
7 | Cc1ccc(C(=O)NCC(c2ccco2)N2CCc3ccccc32)cc1 (centres unmarked) | 6.44
8 | CC(=O)Nc1ccc(NC(=O)c2c(C)nn(-c3ccccc3)c2Cl)cc1C | -6.07
9 | Cc1ccc(C)c(CSC2=NN3CCCC(=O)N=C3S2)c1 | 5.54
10 | O=C(NC1CCCCC1)N1CCCC(c2nc(-c3ccc(S(=O)(=O)N4CCCC4)cc3)no2)C1 (centres unmarked) | 5.38
11 | O=C(c1ccc(NS(=O)(=O)c2ccc(Cl)cc2)cc1)N1CCOCC1 | 11.9
12 | Cc1ccccc1NS(=O)(=O)c1ccc(C(=O)N2CCCC2)cc1 | 15.7
13 | Clc1ccc(CSc2ncn(-c3ccccc3)n2)cc1 | 6.05
14 | O=C(C1=C[C@H](c2ccc3c(c2)OCO3)C[C@H](OCc2ccc(CO)cc2)O1)N1CCN(Cc2ccc3c(c2)OCO3)CC1 | -1.99
15 | COCCn1c(SCC(=O)N2CCCCCC2)nc2c(c1=O)SCC2 | 12.7
16 | COc1ccc(CCNC(=O)CSc2cn(Cc3cccc(C)c3)c3ccccc23)cc1OC | 11.3
17 | COc1ccc(Nc2nc(-c3ccncc3)nc3ccccc23)cc1 | 13.1
18 | CC(NC(=S)Nc1c(Cl)cccc1OC(F)F)C(C)(C)C (centres unmarked) | 3.38
19 | COC(=O)c1ccc(COn2c(=O)c(C)[n+]([O-])c3ccccc32)cc1 | 5.54
20 | CCOc1ncccc1C(=O)Nc1ccc(Cl)cc1 | 4.36
21 | C#CCSc1[nH]c(=O)cc(C)c1C#N | 15.2
22 | COC(=O)c1ccc(NC(=O)c2cc[n+](Cc3ccccc3)cc2)cc1.[Cl-] | 19.4

Row | SMILES | hERG current change (%, negative = inhibition) at 1uM [%]
23 | COc1ccccc1NC(=O)c1sc2ncn(Cc3ccccc3C)c(=O)c2c1C | 15.3
24 | CCOC(=O)c1c(C)[nH]c(C)c1C(=O)COC(=O)c1ccc(S(=O)(=O)N(CC)CC)cc1 | 8.33
25 | CC1CN(C(=O)C2CCCC2)C(C)CN1C(=O)C1CCCC1 (centres unmarked) | 15.9
26 | C#CCNC(=O)C1=C[C@@H](c2ccc3c(c2)OCO3)C[C@@H](OCc2ccc(CO)cc2)O1 | 7.25
27 | Cc1ccc(CCNC(=O)c2sc3nc4n(c(=O)c3c2C)CCC4)cc1 | 13.7
28 | Cc1ccc(S(=O)(=O)N(C)C)cc1-n1c(SCC(=O)Nc2ccc(F)cc2)nc2ccccc2c1=O | 6.21
29 | COc1ccc(/C=C/C(=O)N2CCN(c3ccccn3)CC2)cc1OC | 13.1
30 | COc1nc(N)c(S(=O)(=O)c2ccccc2)cc1C#N | -4.58
31 | COc1ccc(C(C)=O)cc1CN1C(=O)NC(c2ccccc2)(c2ccccc2)C1=O | 3.47
32 | CCN(CC)C(=O)c1c(C)[nH]c(=S)c(C#N)c1-c1ccco1 | 4.95
33 | COc1cc(CNc2ccc(N3CCCC3)cc2)ccc1OCc1ccccc1F | 13.3
34 | COc1ccccc1NC(=O)CN1CCN(CC(=O)Nc2ccc3c(c2)OCO3)CC1 | -67.3
35 | CCOC(=O)C1(CCc2ccccc2)CCN(Cc2cnc(N(C)C)s2)CC1 | -86.4
36 | O=C(CC(NC(=O)c1ccccc1)c1ccccc1)Nc1cccc2ccccc12 (centres unmarked) | 10.6
37 | O=C(NNC(=O)c1ccc2ccccc2c1O)c1ccccc1Cl | 4.54
38 | O=C(Nc1ccccc1C(=O)N1CCN(Cc2ccccc2)CC1)c1ccccc1 | 9.2
39 | CC1(C)Oc2ccc(/C=C/C(=O)N3CCOCC3)c(O)c2C(N2CCOCC2)C1O (centres unmarked) | 10.6
40 | O=C(O)C1Nc2ccc(C(F)(F)F)cc2C2OCCC12 (centres unmarked) | 10.7
41 | CCOc1ccc(-c2nc(CSCC(=O)NCc3ccco3)c(C)o2)cc1 | 2.04
42 | CCOC(=O)C1(C)/C(=N/Nc2ccccc2OC)C(=O)C(=O)N1c1ccccc1 (centres unmarked) | 14.2
43 | COc1cccc(C2c3c(oc4cc(C)c(C)cc4c3=O)C(=O)N2CCCN(C)C)c1 (centres unmarked) | -3.67
44 | Cc1ccc(NC(=O)Cn2cnc([N+](=O)[O-])c2)cc1C | 8.13

Row | SMILES | hERG current change (%, negative = inhibition) at 1uM [%]
45 | Cc1noc(C)c1COC(=O)CCC(=O)c1ccc(F)cc1 | 15.4
46 | CCNc1ccc(Br)cc(C(=O)/C=C/c2c(Cl)cccc2Cl)c1=O | 2.19
47 | C/C(=N\Nc1nnc(-c2ccccc2)c(-c2ccccc2)n1)c1cccc([N+](=O)[O-])c1 | 3.77
48 | CCCOc1ccc(-c2c(C(=O)N/N=C(\C)c3ccncc3)nnn2-c2nonc2N)cc1 | 15.7
49 | COc1ccccc1CNC(=O)CN1C(=O)C(C)N(c2ccc(C)cc2)C1=O (centres unmarked) | 6.07
50 | O=S(=O)(NC(=S)NC1CCCCC1)c1cccs1 | 11
51 | CCN1CCN(Cc2ccc(NC(=O)c3ccc(C)c(NC(=O)c4ccno4)c3)cc2C(F)(F)F)CC1 | 9.11
52 | O=C(Nc1ccc(F)cc1)NC1CCCc2ccccc21 (centres unmarked) | 9.98
53 | CC(=O)Nc1ccc(NC(=O)c2ccccc2N(Cc2ccccc2)S(C)(=O)=O)cc1 | 8.42
54 | Cc1ccccc1-n1nnnc1SCc1csc(-c2ccccc2)n1 | 15.4
55 | COc1cc(C(=O)OCC(=O)NCc2ccco2)cc(OC)c1OC | 6.62
56 | Cc1ccc2cc(CCl)c(Cl)nc2c1 | 5.79
57 | CCOc1cccc(C(=O)Nc2ccc3oc(-c4cccnc4)nc3c2)c1 | 9.72
58 | COc1ccc(OC)c(-c2csc(NC(=O)CSCC(=O)Nc3cc(C)on3)n2)c1 | 19.5
59 | CCn1c(SCc2c(Cl)cccc2Cl)nc2nc3c(cc2c1=O)CCCC3 | 11.2
60 | CCOc1ccc2oc(-c3ccccc3)c(C(N)=O)c2c1 | 12.5
61 | CCOC(=O)CC(=O)c1cc(OC)c(OC)c(OC)c1 | -0.0715
62 | O=C(CCS(=O)(=O)c1cccc2nonc12)Nc1ccc(Br)cc1 | 8.59
63 | Cc1ccn2cc(CCNC(=O)C3CCCCC3)nc2c1 | -2.83
64 | O=c1[nH]c(Cn2nnc(-c3ccccc3)n2)nc2scc(-c3ccccc3)c12 | 13.1
65 | CN1C(=O)C(=Cc2cn(CC#N)c3ccccc23)C(=O)N(C)C1=O | 16.6
66 | Cc1ccc(S(=O)(=O)N(C)c2ccc(OC(=O)c3ccc(N4CCCC4=O)cc3)cc2)cc1 | 12.2

Row | SMILES | hERG current change (%, negative = inhibition) at 1uM [%]
67 | CCN1CCN(Cc2cc3c(cc2[N+](=O)[O-])OCO3)CC1 | 7.07
68 | O=C1CSC(c2cccnc2)N1C1CCCCC1 (centres unmarked) | 1.55
69 | CCN(CC)Cc1nc2c(c(=O)[nH]1)C(CC)(CC)Cc1ccccc1-2 | 6.15
70 | COc1ccc(-c2c(-c3ccc(OC)c(C)c3O)n[nH]c2C)cc1 | 18.3
71 | CCOC(=O)c1sc(NC(=O)c2ccc(=O)[nH]c2)nc1C | 8.54
72 | FC(F)(F)c1cc(-c2cccs2)nc2cc(-c3cccs3)nn12 | 15.5
73 | CCN(c1ccccc1)S(=O)(=O)c1ccc(Cl)c(NC(=O)COC(=O)c2ccc(O)cc2)c1 | 17.8
74 | O=C(c1cc(COc2ccc(F)cc2Cl)on1)N1CCSCC1 | 7.92
75 | Cc1ccc(C)c(N2CCN(S(=O)(=O)c3c(C)noc3C)CC2)c1 | 10.1
76 | Cc1csc(-c2cnn(-c3ccccc3)c2NC(=O)c2cccc(C(F)(F)F)c2)n1 | 20
77 | CCOC(=O)c1cnc2ccc(OCC)cc2c1N1CCN(C)CC1.Cl | -15.6
78 | CCOC(=O)c1ccc(N=c2sc(C(=O)OC)cc(=O)n2Cc2ccco2)cc1 | 17.7
79 | COc1ccccc1-c1c(C)oc2cc(OC(=O)c3ccco3)ccc2c1=O | 17.6
80 | O=C(COc1cccc2ccccc12)NNC(=O)C1CCCO1 (centres unmarked) | 1.95
81 | CCO[C@@H]1OC(C(=O)NCc2ccccc2)=C[C@H](C2CC2)[C@H]1CCCO | 2.52
82 | CC(=O)Oc1ccc2c(=O)c(-c3ccccc3)coc2c1 | 3.24
83 | Cc1ccc2nc(SCC(=O)Nc3cc(C)on3)[nH]c2c1 | -2.32
84 | O=C(NC(=S)NCC1CCCO1)c1ccc(Br)o1 (centres unmarked) | 7.95
85 | COc1ccc(-c2cc(C)no2)cc1S(=O)(=O)N(C)c1ccc(C)cc1 | 4.37
86 | Cc1noc(C)c1-c1nnc(-c2ccc(OC(F)(F)F)cc2)o1 | 4.04

Source: paper PMC4336329 (PLoS ONE, 2015)
